Assay results taken from the supplement of paper PMC3334620.
Over roughly 33,000 sequences, “E-score (-0.5 to 0.5)” has its median near -0.017; the highest 2% begin near 0.3. This is one part of the list.

Molecular target: T1, Sut1 (UniProt P53032)
T1 sequence: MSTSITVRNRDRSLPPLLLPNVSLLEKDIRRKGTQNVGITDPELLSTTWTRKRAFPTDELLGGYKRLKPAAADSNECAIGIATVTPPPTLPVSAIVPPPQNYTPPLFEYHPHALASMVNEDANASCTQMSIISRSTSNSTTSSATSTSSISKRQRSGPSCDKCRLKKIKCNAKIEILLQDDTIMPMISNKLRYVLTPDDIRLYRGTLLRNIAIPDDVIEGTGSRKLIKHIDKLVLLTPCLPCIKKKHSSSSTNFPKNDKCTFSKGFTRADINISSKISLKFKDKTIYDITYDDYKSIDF
Experiment: PBM E-score (8-mer binding enrichment) (E-score (-0.5 to 0.5)); higher = stronger / more preferred TF binding; most listed sequences are background and not binding sites
Conditions: protein concentration: 200 nM; construct: GST-full length
Method in brief: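 GST-tagged yeast TFs (full-length or DNA-binding domain) were made by PURExpress in vitro transcription/translation and applied at about 100-200 nM to universal all-10-mer Agilent arrays. The arrays were made double-stranded by primer extension, on fresh or once-stripped slides. Bound protein was detected with fluorescent anti-GST, and scans were normalised with masliner. Each ungapped eight-base word, pooled with its reverse complement, received an E-score (modified Wilcoxon-Mann-Whitney statistic) from the Universal PBM Analysis Suite.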

| Sequence | PBM E-score |
| --- | --- |
| TCGGCAAA | 0.102 |
| ATCGCACG | -0.165 |
| GACATAGC | 0.0267 |
| AAGCGCGA | 0.00168 |
| ATCAGTTG | 0.0304 |
| GATCTTGC | 0.0765 |
| CGACCAGA | -0.076 |
| CTTCCATC | -0.0797 |
| CGTCCGAC | -0.14 |
| CATCCCCC | -0.286 |
| GGAACGAC | -0.147 |
| GACGAAGC | -0.0148 |
| CTAATAGA | 0.0839 |
| GCCGCGAA | -0.113 |
| ATATAGTA | 0.276 |
| CTCGAAGC | -0.0293 |
| CGAAATAG | 0.0281 |
| ACCAGGAG | -0.183 |
| ACAAGACC | -0.138 |
| AAGTAGAA | 0.145 |
| AGAGGTAC | -0.28 |
| TCTGCGCA | -0.0828 |
| CTCATAAG | -0.00665 |
| CCTATATC | 0.01 |
| AATTCCTC | -0.14 |

| Sequence | PBM E-score |
| --- | --- |
| GTCGTGGA | -0.197 |
| GATTTTAC | 0.166 |
| ACTTGAGC | -0.227 |
| ACATGAGT | -0.074 |
| AACCAAGA | 0.0648 |
| AAGGGATA | -0.0268 |
| CGACAACC | -0.231 |
| GCAAGCGA | -0.157 |
| AAAGAGCT | -0.0565 |
| AGTTGAAT | 0.252 |
| CAGCTCGC | -0.204 |
| CTGAAAGC | 0.0793 |
| ATGGACTG | 0.0002 |
| TCCACCAA | 0.00651 |
| AATTTCTC | 0.238 |
| CGACTACA | -0.0233 |
| AGCTATAG | -0.136 |
| AGCAAAGA | -0.00358 |
| GGGGGTAC | -0.0797 |
| AGGACCGC | -0.00375 |
| GAAATTTC | 0.149 |
| GAGTACTA | 0.13 |
| ATGTGCGA | -0.0365 |
| CGTGCGCC | -0.0359 |
| ATGGCGGA | -0.0131 |

| Sequence | PBM E-score |
| --- | --- |
| ATTGGTCC | 0.0796 |
| CACCAAGA | -0.111 |
| GCGGATAC | 0.037 |
| AGGAGACT | -0.0506 |
| AACGTTGG | -0.0132 |
| CACGCTCA | 0.0901 |
| AGTGGCAA | -0.101 |
| ATAAGTCG | 0.0862 |
| AACCCTCC | -0.325 |
| CTCCACAA | -0.0276 |
| CCGAACGG | 0.235 |
| CTAAAGGA | 0.0933 |
| GGGTAGGA | -0.0425 |
| ATTTTTTG | 0.132 |
| GCCCAAAA | -0.0622 |
| CAGTCATG | -0.193 |
| CAATACTA | -0.0656 |
| AAACGTTG | -0.176 |
| CCCGGGTA | -0.0559 |
| GACTCCTA | 0.0134 |
| AGCGTATG | -0.216 |
| AGCATCGC | -0.0602 |
| CTTAGAAG | -0.112 |
| AACGACTT | -0.0422 |
| CATTCTAC | 0.0945 |

| Sequence | PBM E-score |
| --- | --- |
| ACGTCGTG | -0.0891 |
| GATCTACC | -0.128 |
| CCCCACAG | -0.36 |
| CGGCTTAA | 0.185 |
| ACCGTGCG | -0.0849 |
| AACATACA | 0.194 |
| AGCAATAG | -0.0816 |
| GTTCCTCA | -0.215 |
| AGAGGCTA | -0.217 |
| GTAGGCAA | -0.132 |
| AGTTTCCA | 0.134 |
| TATCCACA | 0.0115 |
| CTATGGAC | -0.059 |
| ACGTCTTG | -0.0309 |
| ATTGCTGG | -0.0853 |
| CGTAGCTA | 0.0208 |
| AACTCTGG | -0.0642 |
| ACCCGCCC | -0.0839 |
| GTACCTAA | -0.0405 |
| AATAATCC | 0.0878 |
| GATTTATA | 0.255 |
| CGGGCTGC | -0.15 |
| CTGGCTAC | -0.124 |
| ATGTGTCA | 0.188 |
| CACATATG | -0.0886 |

| Sequence | PBM E-score |
| --- | --- |
| ACAATCCT | 0.103 |
| AACCCTGC | -0.13 |
| TATGAAAA | 0.191 |
| GAACTGGA | -0.0218 |
| ATGGTCAG | 0.0354 |
| CGCGTGAA | -0.0846 |
| AGGATTAA | -0.0189 |
| AGAGACAA | 0.157 |
| TGAGCTAA | 0.102 |
| CAAACTCC | 0.356 |
| GATAGGCA | 0.0117 |
| GGAGCTAA | 0.058 |
| AACATGGT | -0.173 |
| AGACTACT | -0.0623 |
| ACAAATGA | 0.129 |
| AGGTAAGG | -0.0834 |
| CGAGCCGC | -0.00209 |
| ATCCTAAC | 0.0866 |
| GGACGCCA | -0.332 |
| CATAGGGG | -0.348 |
| GCCGACCA | -0.203 |
| AGCGCCTG | -0.219 |
| ACTTACAC | 0.0193 |
| GACCATTA | 0.171 |
| AATGAGTC | 0.0558 |

| Sequence | PBM E-score |
| --- | --- |
| CAATGTCG | -0.0012 |
| CTTAGCGA | -0.128 |
| GCGTTGCC | -0.119 |
| AAGAAGCT | 0.102 |
| ATGCTTAG | -0.0198 |
| AACAAGCG | -0.0413 |
| CCTTACAC | 0.0691 |
| TACACAGA | 0.105 |
| TACCGAAA | 0.102 |
| ATTGTTCC | 0.0563 |
| AGTCGGCA | 0.05 |
| GCGCAGCC | 0.0307 |
| AGGCGGAG | 0.234 |
| AGAGCTGA | -0.141 |
| AGAGATTG | 0.129 |
| AAGCTCGG | 0.235 |
| ACCGCTTA | -0.175 |
| CAATATTA | 0.296 |
| CTCCTAAA | 0.0137 |
| TAGGAAAA | 0.0863 |
| CGAATGTA | 0.024 |
| AATCGCTG | -0.0129 |
| ATGTAATC | 0.12 |
| AATCCCCC | -0.212 |
| GCGGCAAA | -0.104 |

| Sequence | PBM E-score |
| --- | --- |
| CTGCAAAC | -0.209 |
| CGCCATTA | 0.0246 |
| CAGCAAGA | 0.00586 |
| GACTTGAC | 0.125 |
| CCCTGTCC | -0.278 |
| AATGAAGC | -0.0403 |
| CCGTCTTA | 0.0383 |
| GTTAATGA | 0.111 |
| CACGCAGG | -0.0775 |
| AAGACATC | -0.113 |
| CGACAGCC | -0.145 |
| CCGGCCGA | 0.0979 |
| CAGCCCCG | 0.161 |
| CCATAGCC | 0.00618 |
| TAGCGTCA | -0.116 |
| ATCGGCAT | 0.0323 |
| CACTCTTC | -0.135 |
| CAGTTGCA | -0.0927 |
| GTAGCAAA | 0.138 |
| CATGTTAC | 0.051 |
| ACCCTCAC | -0.305 |
| AAACCAGG | -0.139 |
